# Results as given in PMC4336329 (PLoS ONE, 2015).
# Among all 310,000 compounds or so, about 14,000 (4.5%) showed an effect of 50% or more. Effects have a minus sign here. The list shows a part of the results.
# Biological target: human ether-à-go-go-related gene (hERG) potassium channel (human, UniProt Q12809)
# Experiment: primary screen, population patch clamp on CHO cells stably expressing hERG
# 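Note: peak tail current of the secondary pulse compared with the same well before compound.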
# Chain of human ether-à-go-go-related gene (hERG) potassium channel (Q12809 whole entry, looked up): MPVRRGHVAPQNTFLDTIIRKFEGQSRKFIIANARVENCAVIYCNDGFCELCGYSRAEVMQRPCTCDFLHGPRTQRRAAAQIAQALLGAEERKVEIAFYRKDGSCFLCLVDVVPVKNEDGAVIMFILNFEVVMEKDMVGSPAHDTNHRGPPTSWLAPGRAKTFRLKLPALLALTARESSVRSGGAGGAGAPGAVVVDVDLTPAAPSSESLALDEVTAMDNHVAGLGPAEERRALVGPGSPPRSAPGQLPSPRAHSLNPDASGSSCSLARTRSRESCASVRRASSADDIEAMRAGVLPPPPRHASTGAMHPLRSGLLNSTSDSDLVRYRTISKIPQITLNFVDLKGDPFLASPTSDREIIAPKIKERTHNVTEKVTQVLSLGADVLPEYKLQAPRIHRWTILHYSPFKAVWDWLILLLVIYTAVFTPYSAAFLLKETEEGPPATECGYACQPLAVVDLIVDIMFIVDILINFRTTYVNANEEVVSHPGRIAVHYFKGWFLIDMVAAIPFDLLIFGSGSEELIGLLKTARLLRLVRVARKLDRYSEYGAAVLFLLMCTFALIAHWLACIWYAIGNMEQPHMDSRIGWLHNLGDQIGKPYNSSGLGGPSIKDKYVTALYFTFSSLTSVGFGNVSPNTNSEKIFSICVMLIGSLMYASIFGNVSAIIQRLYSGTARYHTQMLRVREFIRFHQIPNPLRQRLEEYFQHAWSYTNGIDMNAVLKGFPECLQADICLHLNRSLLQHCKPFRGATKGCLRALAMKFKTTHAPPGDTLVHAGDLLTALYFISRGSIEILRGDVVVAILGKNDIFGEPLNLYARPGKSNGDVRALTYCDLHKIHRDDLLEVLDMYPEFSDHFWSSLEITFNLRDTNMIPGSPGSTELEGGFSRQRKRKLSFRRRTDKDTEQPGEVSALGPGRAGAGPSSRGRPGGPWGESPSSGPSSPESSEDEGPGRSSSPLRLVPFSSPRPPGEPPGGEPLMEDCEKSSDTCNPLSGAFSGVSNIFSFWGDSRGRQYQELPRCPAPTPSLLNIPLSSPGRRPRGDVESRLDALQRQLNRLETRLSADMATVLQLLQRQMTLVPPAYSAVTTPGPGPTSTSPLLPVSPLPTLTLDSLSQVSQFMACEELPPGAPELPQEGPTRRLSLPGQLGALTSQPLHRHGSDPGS
row,Structure (SMILES),"hERG current change (%, negative = inhibition) at 10uM"
1,Cc1ccc(S(=O)(=O)N2CCN(S(C)(=O)=O)CC2)cc1,-4.95%
2,CCC(C)NS(=O)(=O)c1ccc(NS(=O)(=O)c2ccc(F)cc2)cc1 (centres unmarked),-0.423%
3,COc1ccc(NC(=O)CN(C)S(=O)(=O)c2ccc3c(c2)OCCO3)c2ncccc12,2.91%
4,Cn1c(=O)cc(N)n(Cc2ccccc2)c1=O,16.5%
5,O=S(=O)(Nc1ccc(Br)cn1)c1ccc(Cl)s1,10.2%
6,CCC(C)(C)NC(=O)C(c1ccccc1Cl)N(Cc1cccnc1)C(=O)CCC(=O)Nc1cc(C)on1 (centres unmarked),7.68%
7,CN(C)/C=N/c1nc2nccc(-c3cccc(Cl)c3)n2n1,15.4%
8,CN(C)c1nc(OCCNC(=O)Nc2ccc(Cl)cc2)nc(N(C)C)n1,11.9%
9,O=c1cc(NCc2ccc3c(c2)OCO3)[nH]c(=O)n1-c1ccc(Cl)cc1,-0.329%
10,O=C(/C=C/c1ccccc1)Nc1cccnc1,-26%
11,COc1cc(C(=O)NCCCNC(=O)c2cc(OC)c(OC)c(OC)c2)cc(OC)c1OC,7.38%
12,O=C(NC1CCCC1)c1ccc(CNc2c(N3CCOCC3)c(=O)c2=O)cc1,12.9%
13,C#CCn1c(=NC(=O)c2cccs2)sc2cccc(OCC)c21,16%
14,CN(CC(=O)Nc1ccc(F)c(F)c1F)C(=O)CN1C(=O)C2CCCCC2C1=O (centres unmarked),-18.2%
15,c1cc(-c2n[nH]c(-c3ccncc3)n2)ccn1,14.1%
16,COCC(=O)Nc1ccc(C(C)C)cc1,-1.68%
17,CCOC(=O)C1(Cc2cccc(F)c2)CCN(C(=O)c2cnccn2)CC1,1.05%
18,COc1ccc(C(=O)Nc2cc(OCc3ccccc3)c(Cl)cc2Cl)cc1,15.7%
19,Cc1onc(-c2c(Cl)cccc2Cl)c1C(=O)NNC(=O)c1c(-c2c(Cl)cccc2Cl)noc1C,13.9%
20,S=C(NC1CCCC1)N1CCN(c2ccc(Cl)cc2)CC1,-13.6%
21,Cc1nn2c3ccccc3n(CCN3CCCCC3)c2nc1=O,-13.1%
22,Cc1ccc(S(=O)(=O)N(C)CCCC(=O)N2CCN(C=O)CC2)cc1,-3.96%

row,Structure (SMILES),"hERG current change (%, negative = inhibition) at 10uM"
1,Cc1sc2nc(CC(N)=O)[nH]c(=O)c2c1-c1ccccc1,13.1%
2,COc1ccccc1N1CCN(S(=O)(=O)c2cccs2)CC1,-19.6%
3,CC(C)(C)N1CC(c2nc3ccccc3n2Cc2ccc(Cl)cc2)CC1=O (centres unmarked),-42.1%
4,O=C(COC(=O)c1ccc(S(=O)(=O)Nc2ccccc2)cc1)NCCN1C(=O)CSC1=O,-2.47%
5,COc1ccc(OCC(=O)OCC(=O)N2CC(=O)Nc3ccccc32)cc1,-3.16%
6,CC(=O)Nc1c(S(=O)(=O)c2ccccc2)c2nc3ccccc3nc2n1Cc1ccccc1,1.39%
7,Cc1nnc(-c2cccc(Br)c2)c2cn(-c3ccccc3)nc12,-24.4%
8,O=C(CN(CC1CCCO1)C(=O)CNS(=O)(=O)c1ccccc1)NCc1ccc(F)cc1 (centres unmarked),11.9%
9,Cn1cc(C[C@H](NC(=O)OC(C)(C)C)C(=O)N[C@@H](CO)Cc2ccccc2)c2ccccc21,-8.2%
10,C/C(=N\OCC(=O)Nc1ccc(F)c(F)c1F)c1cc2ccccc2o1,8.09%
11,O=C(CSc1nc2ccsc2c(=O)n1NC(=O)c1ccccc1)NCc1ccco1,4.37%
12,CCCCN(C(=O)c1c(CC)noc1C)c1c(N)n(CCCC)c(=O)[nH]c1=O,7.47%
13,CCOC(=O)c1c(C)n(C)c2ccc(OC(C)C(=O)OC)cc12 (centres unmarked),-10%
14,Nc1ncnc2c1ncn2C1CCC(CO)C(O)C1 (centres unmarked),7.52%
15,CCOc1cc(NC(=S)NCc2ccco2)c(OCC)cc1NC(=O)CC,-0.376%
16,Cc1cc(C(=O)N/N=C/c2cccs2)no1,1.55%
17,O=c1c(-c2ccc3c(c2)OCCO3)coc2c(CN3CCOCC3)c(O)ccc12,-0.591%
18,CC(C)CN(C)C(=O)CC1C(=O)NCCN1C (centres unmarked),18.3%
19,O=C(O[C@@H]1[C@H](Cc2ccccc2)NS(=O)(=O)[C@H]2C[C@@H]3C=C[C@]12O3)c1ccccc1Br,12%
20,Cc1cc(C)n(-c2ccc(NC(=O)C3CCCCN3C(=O)c3ccoc3)cc2)n1 (centres unmarked),-2.37%
21,CCCCn1c(=O)[nH]c(=O)c2c1nc(-c1ccc(OC(F)F)c(OC)c1)n2C,17.1%
22,CCS(=O)c1ccccc1C(=O)OCC(=O)Nc1cccc(S(=O)(=O)N2CCCCC2)c1 (centres unmarked),-23.3%
